According to PubChem BioAssay AID488969 (Vanderbilt High Throughput Screening Facility, 2010):
Whole data set: some 110,000 compounds, median “z-score” near -0.1, cut for the highest 2% near 2. Some of the results follow.

molecular target: Metabotropic glutamate receptor 8 (Rattus norvegicus) (UniProt P70579); test: rat mGluR8 modulators via GIRK flux, primary screen, cell-based, thallium flux, HTS (AID 488969); conditions: HEK293 rat mGluR8, GIRK (G protein-gated inwardly rectifying potassium channel) thallium flux, FluoZin2; at 10 µM; stronger effect = higher value; submaximal glutamate (EC20) added with thallium
Chain of UniProt P70579 (P70579 whole entry, looked up): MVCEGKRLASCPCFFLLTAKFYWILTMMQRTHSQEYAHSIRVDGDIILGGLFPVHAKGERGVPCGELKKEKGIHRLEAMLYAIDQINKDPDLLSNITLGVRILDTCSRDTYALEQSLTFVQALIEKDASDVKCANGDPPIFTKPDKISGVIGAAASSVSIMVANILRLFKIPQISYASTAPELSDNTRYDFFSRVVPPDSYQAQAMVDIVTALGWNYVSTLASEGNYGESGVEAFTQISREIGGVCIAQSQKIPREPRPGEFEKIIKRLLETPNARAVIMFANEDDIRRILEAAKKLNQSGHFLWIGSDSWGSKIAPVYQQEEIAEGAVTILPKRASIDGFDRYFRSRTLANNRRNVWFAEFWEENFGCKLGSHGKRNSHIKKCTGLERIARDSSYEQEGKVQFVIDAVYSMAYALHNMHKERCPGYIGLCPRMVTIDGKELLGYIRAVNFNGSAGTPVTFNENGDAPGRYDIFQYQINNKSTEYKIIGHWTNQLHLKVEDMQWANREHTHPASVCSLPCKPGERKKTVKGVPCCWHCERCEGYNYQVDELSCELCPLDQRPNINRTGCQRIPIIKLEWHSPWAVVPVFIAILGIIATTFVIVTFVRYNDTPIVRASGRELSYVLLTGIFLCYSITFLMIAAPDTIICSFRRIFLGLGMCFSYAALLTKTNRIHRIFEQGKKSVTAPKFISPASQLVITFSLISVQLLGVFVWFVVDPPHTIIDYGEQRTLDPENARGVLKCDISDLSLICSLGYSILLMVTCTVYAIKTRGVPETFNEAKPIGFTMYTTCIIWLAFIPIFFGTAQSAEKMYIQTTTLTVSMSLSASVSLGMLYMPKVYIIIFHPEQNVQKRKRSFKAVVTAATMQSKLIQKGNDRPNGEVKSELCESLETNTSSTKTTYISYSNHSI

Structure (SMILES) | z-score
CC(C)(C)NC(=O)NC(=O)COC(=O)CCCc1c[nH]c2ccccc12 | -0.951
CCOC(=O)c1c(N)n[nH]c1-c1ccc(OC)cc1 | 0.226
COc1ccc(S(=O)(=O)Cc2ccc(C(=O)N3CCN(c4ncccn4)CC3)o2)cc1 | 0.106
CC(=O)Nc1ccc(Nc2c([N+](=O)[O-])cc(S(C)(=O)=O)cc2[N+](=O)[O-])cc1 | 0.252
CCOC(=O)C1C2C=CC3(CN(c4ccc(Cl)c(F)c4)C(=O)C13)O2 (configuration not stated) | 0.0995
O=C(O)CSc1c(-c2ccccc2)[nH]c2ccccc12 | 0.593
O=S1(=O)C=C(SCc2cccc(Cl)c2)Nc2ccccc21 | -0.623
CC1CCc2c(sc3nc(CSc4ncn[nH]4)[nH]c(=O)c23)C1 (configuration not stated) | -0.17
O=C(OCC#CCSc1nnc(-c2ccccc2)o1)c1cccs1 | -0.745
O=C(CN(c1ccc(F)cc1)S(=O)(=O)c1ccc2c(c1)OCCO2)Nc1ccccc1 | -0.276
COC(=O)C1=C(Nc2ccc(C)cc2)C=C(C)C(C(=O)OC)C1c1ccc(F)cc1 (configuration not stated) | -0.0838
CCN1CC2=C(OC(N)=C(C#N)C2c2ccccc2)/C(=C\c2ccccc2)C1 (configuration not stated) | -0.777
COc1ccccc1N1CCN(C(=O)/C=C/c2ccccc2)CC1 | -0.731
O=C(NCc1ccco1)Nc1ccc(Br)cc1 | -0.466
Cc1ccc(CNC(=O)/C(C#N)=C/c2ccc(C)s2)cc1 | -0.213
CSc1nccc(Nc2ccccc2)c1C#N | -0.557
O=C(Nc1ccc(Cl)cc1C(F)(F)F)c1ccccc1 | -0.276
CCc1c(C(=O)N2CCN(c3ccccc3F)CC2)[nH]c(C)c1C(C)=O | 0.0803
Cc1cccc(C(=O)Nc2nnc(Cc3c[nH]c4ccccc34)s2)c1 | -0.0878
CN(C)c1ncc(S(=O)(=O)c2ccccc2)c(-c2ccccc2Cl)n1 | -0.226
O=C(OCc1nnc(-c2ccccc2)o1)c1cc(=O)c2ccccc2o1 | -0.00878
CS(=O)(=O)N(CC(=O)NCc1ccccc1Cl)Cc1ccccc1 | 0.17

Structure (SMILES) | z-score
CCOc1ccc(C2CC(c3cccc(C)c3)n3ncnc3N2)cc1 (configuration not stated) | -0.178
Cc1[nH]c2ccccc2c1/C=N\NC(=O)Cn1nnc(-c2ccccc2)n1 | -0.191
COc1ccccc1CNC(=O)c1ccc(OCC2CCCO2)cc1 (configuration not stated) | -0.139
COc1ccc2oc(C)c(C(=O)c3ccc([N+](=O)[O-])cc3)c2c1 | 0.0892
CC(C)COCC1CC2(CC(C)(c3csc(N)n3)OC2=O)C(=O)O1 (configuration not stated) | 0.293
O=C(COC(=O)C1CCC(=O)N1)Nc1ccc(Br)cc1 (configuration not stated) | 0.343
CCCNC(=O)Nc1ccccc1C(=O)Nc1ccc(OC)cc1 | -0.22
CC(=O)Nc1ccc(-n2cnnn2)cc1 | -0.324
COC(=O)CNC(c1ccccc1)c1cc(Br)ccc1NC(=O)OCc1ccccc1 (configuration not stated) | -0.324
Cc1noc(C)c1C(=O)N1CCCC1 | 0.0937
O=C(Cn1cnc2sc(-c3ccccc3)cc2c1=O)NCc1ccccc1 | 0.0158
COc1ccc2c(c1)C1NC(=S)N[C@@](C)(O2)C1C(=O)Nc1ccccc1 (some centres not stated) | -0.449
O=C1NC2(CCCCC2)C(=O)N1CCS(=O)(=O)Oc1ccccc1 | -0.462
CS(=O)(=O)c1ccc2nc(NC(=O)Nc3cccc(Cl)c3)sc2c1 | 0.135
S=c1[nH]nc(COc2ccccc2)n1/N=C/c1cccs1 | 0.649
O=C(NS(=O)(=O)c1ccccc1)c1ccccc1 | -0.314
NNC(=O)COc1ccc(-c2n[nH]c(C(F)(F)F)c2-c2ccc(Br)cc2)c(O)c1 | -0.252
C/C(Cn1nc([N+](=O)[O-])cc1C)=N\NC(=O)COc1ccc(Cl)cc1Cl | -0.14
CC(Oc1ccc(Cl)cc1)c1ccnn1S(=O)(=O)c1ccc(Cl)cc1 (configuration not stated) | -0.157
C=CCNC(=O)CCCCCNS(=O)(=O)c1ccc(OC)cc1 | -0.0366
O=C(CSc1nnc(-c2cccnc2)n1C1CCCCC1)NC1CCCCC1 | 0.178
O=C(NCc1ccccc1)c1ccc2c(c1)C(=O)N(CC1CCCO1)C2=O (configuration not stated) | 0.824

Structure (SMILES) | z-score
O=C(COC(=O)COc1ccc2ccccc2c1)Nc1cc(C(F)(F)F)ccc1N1CCOCC1 | -0.0337
Cc1cc(C)nc(-n2nc(C)c3c(C(F)(F)F)cc(=O)[nH]c32)n1 | 0.172
Cn1c(=O)oc2cc(S(=O)(=O)N3CCOCC3)ccc21 | 0.0252
Cc1ccc(Nc2nnc(SCC(=O)Nc3cccc(S(=O)(=O)NC4=NCCCCC4)c3)s2)cc1 | -0.751
Cc1n[nH]c(C)c1Sc1ccccc1N=Cc1cc(Cl)cc([N+](=O)[O-])c1O | -1.42
CC(=O)N(C(C)=O)c1ccc2nc(C)[nH]c(=O)c2c1 | -0.244
COc1cc(/C=N/Nc2nc3c(c(=O)n(C)c(=O)n3C)n2Cc2ccccc2)ccc1OC(=O)c1ccco1 | 0.0129
COc1ccccc1N1CCN(C(c2ccc(C)cc2)c2nnnn2C(C)C)CC1 (configuration not stated) | -0.415
OC(c1cccs1)(c1cccs1)C1C[N+]2(CF)CCC1CC2 (configuration not stated) | -0.36
O=C(NCCO)C1CCN(S(=O)(=O)c2ccc(F)cc2)CC1 | -0.466
CCOc1cc(C(=O)Nc2cnccn2)cc(OCC)c1OCC | -0.438
COc1ccc(CCN(C)C(=O)N2CCOCC2)cc1OC | 0.0315
COc1ccc2cc(C3(C)NC(=O)N(CC(=O)Nc4c(C)n(C)n(-c5ccccc5)c4=O)C3=O)ccc2c1 (configuration not stated) | 0.117
COc1ccc(-c2nc3ccccc3c(=O)n2CCOc2ccc(C)cc2C)cc1 | -0.182
c1ccc(CCc2nc(-c3ccccn3)no2)cc1 | 1.29
COC(=O)c1ccc2c(=O)n(CCCCCC(=O)NCc3ccccc3)c(=O)[nH]c2c1 | 0.645
O=C(Cc1cccs1)Nc1nc2ccccc2s1 | -0.401
O=C(CNS(=O)(=O)c1ccc(Br)s1)N1CCC(N2CCCCC2)CC1 | -0.0225
O=C(COC(=O)c1cc(-c2cccnc2)nc2ccccc12)Nc1ccc(F)cc1F | -0.565
CCC(C)(NC(=O)c1ccccn1)C(=O)NC1CCCCC1 (configuration not stated) | 0.115
O=C(C1CCCN(S(=O)(=O)c2cccc3nonc23)C1)N1CCN(c2cccc(Cl)c2)CC1 (configuration not stated) | 0.658
Cc1cccc(CSCCNC(=O)c2ccc(N(C)S(=O)(=O)c3ccccc3)cc2)c1 | -0.463

Structure (SMILES) | z-score
CCCN1CCC(=NNC(=O)CSc2cc(C)c(Br)cc2C)CC1 | -0.165
CCNC(=O)Cn1c(=O)c2c(ncn2Cc2ccccc2)n(Cc2ccccc2)c1=O | -0.301
CCCCC1CC(CSC(=N)N)OC1=O (configuration not stated) | 0.732
Cc1cccc(C)c1NC(=S)N(Cc1ccco1)C1CCN(C(C)C)CC1 | -0.133
CC(C)n1nc(C(=O)OCn2nnc3ccccc3c2=O)c2ccccc2c1=O | -0.698
O=C(NCc1cccs1)c1ccc(CS(=O)(=O)c2ccc(Cl)cc2)o1 | -0.408
CC(C)C1C(C#N)=C(N)Oc2n[nH]c(-c3ccccc3)c21 (configuration not stated) | -0.771
Cc1ccc(CCNC(=O)c2coc3nc4ccccc4nc23)cc1 | 0.0587
Nn1cnnc1SC1CCCCC1NS(=O)(=O)c1ccccc1 (configuration not stated) | -0.0644
CCCN(CCC)CCNC(=O)Cn1cnc2sc(C)c(S(=O)(=O)N3CCOCC3)c2c1=O | 0.803
CCOC(=O)C(=O)Nc1ccc(S(=O)(=O)Nc2ncccn2)cc1 | -0.0325
COC(=O)c1c(NC(=O)C2Cc3ccccc3C(=O)O2)sc2c1CCCC2 (configuration not stated) | -0.232
Cc1ccc(OC(=S)Nc2ccc(O)cc2)cc1 | 0.0849
Cc1ccc([N+](=O)[O-])cc1NC(=O)c1ccc(CSc2ccccc2)cc1 | -0.433
COc1ccc(/C=C/C2=NC(=C\N(C)C)/C(=O)O2)cc1 | -0.643
CO/N=C(/CNC(=O)c1ccc(Cl)cc1Cl)c1ccc(Cl)cc1 | -0.178
O=C(Nc1ccc(OCC(=O)N2CCC(Cc3ccccc3)CC2)cc1)c1ccco1 | 1.42
O=C1NC(NS(=O)(=O)c2ccc(Cl)cc2)(C(F)(F)F)C(=O)N1c1ccccc1 (configuration not stated) | -0.21
C#CC[N+](C)(C)CCCCCCCCCC | -0.708
Cc1noc(C(=O)Nc2ccccc2C(F)(F)F)c1Cl | -0.0737
Cc1cc(Nc2ccccc2)nc(N)n1 | -0.126
CN(CC(=O)N1CC=C(c2ccccc2)CC1)S(=O)(=O)c1ccc2c(c1)c(=O)n(C)c(=O)n2C | -0.448

Structure (SMILES) | z-score
N#Cc1cc([N+](=O)[O-])ccc1Oc1cccc(/C=N/NC(=O)c2ccc(Cl)cc2)c1 | -0.242
O=C(N1CCCC1)n1c(Cc2ccccc2)nc2ccccc21 | 1.03
C=CCNC(=O)c1ccc(-c2nc(-c3ccc(Cl)c(Cl)c3)cs2)cc1 | -0.148
O=C(NC1CCN(C(=O)N2c3ccccc3Sc3ccccc32)CC1)c1ccccc1Cl | -0.141
O=C(O)CN(c1ccc2c(c1)OCCO2)S(=O)(=O)c1ccccc1 | 0.571
O=C1NC(=O)/C(=C\c2ccccc2OCc2cccc([N+](=O)[O-])c2)N1 | 0.121
O=C(c1ccccc1)c1cc([N+](=O)[O-])ccc1N1CCOCC1 | -0.227
O=C(c1ccccc1)c1nn(-c2ccccc2)c2nnc(Cc3ccccc3)c(=O)n12 | 0.0936
COc1ccc(C2CC(c3ccc(Br)cc3)Nc3nc(N)nn32)cc1 (configuration not stated) | 1.67
O=C(NCc1ccccc1)/C(NC(=O)c1ccccc1)=C(/Sc1ccccn1)c1ccccc1 | -0.559
O=[N+]([O-])c1ccccc1/C=N/N1CCN(c2ccc(Cl)cc2)CC1 | 0.09
COc1ccc(C(=O)/C=C/C(=O)N(Cc2ccc(F)cc2)C(C(=O)NC2CCCCC2)c2ccncc2)c(O)c1 (configuration not stated) | 0.484
CC(C)OC(=O)CSc1nc2cc3c(cc2cc1C#N)OCO3 | 0.206
Cc1cc(N2CCOCC2)c(F)cc1C(=O)c1ccccc1 | -0.135
CC1(C)Cc2c(sc3c2C2=NCCN2C=N3)CS1 | -0.436
COc1ccc(NC(=O)C(NC(C)=O)C(=O)NCc2ccccc2Cl)cc1 (configuration not stated) | 0.051
CCOC(=O)C1=C(C)N=c2s/c(=C\C(=O)OC)c(=O)n2C1c1ccc(OC)cc1 (configuration not stated) | -0.276
Cc1[nH]c2c(Br)cccc2c1[C@H]1[C@@H](CC#N)C1(C)C | -0.534
CCCCOc1ccc(C(=O)N/C(=C\c2ccc([N+](=O)[O-])cc2)C(=O)OCc2ccco2)cc1 | -0.576
